Assay results published in PubChem BioAssay AID624418 (National Center for Advancing Translational Sciences (NCATS), 2012).
Among all 410,000 compounds or so, about 530 (0.13%) were called active. This list was built around the results that the source calls inconclusive (neither active nor inactive); the mix of calls is not that of the screen. Calls follow the shape of the dose curve; as a rule, active = well fitted inhibition curve with a large enough effect; inconclusive = small, poorly fitted or top-dose-only effect, or another doubt; inactive = no such curve, though single readings can be large or run the other way. Potencies of inconclusive entries are doubtful fits and often do not repeat.

Test: qHTS of GLP-1 Receptor Inverse Agonists: Cytotox Screen
Settings: HEK293 cAMP-luciferase reporter cells, luminescence, 24 h; activity change, negative = inhibition: at 38.3 µM (top of the series) unless noted
Text: The overall goal of this project was to develop a novel assay for discovering small molecule ligands for class B1 G protein-coupled receptors (GPCRs). Very few agonists (or inverse agonists) with generally weak activity for this entire group of physiologically important receptors are known to date. To establish proof-of-principle that this critical bottleneck can be overcome with a suitable screening approach, our studies focused on the class B1 receptor for glucagon-like peptide-1 (GLP-1R), a potential therapeutic target for diabetes and neurodegenerative disease.
The assay was developed using a cell-based functional readout. Toward this goal, stably transfected HEK293 cell clones were established that co-express (i) a cAMP-responsive luciferase reporter gene, and (ii) constitutively active GLP-1R that upon ligand interaction inhibit (inverse agonists) the luciferase activity. In addition, two control cell lines were developed: (i) one that express only the cAMP-responsive reporter gene to enable initial exclusion of GLP-1R independent effects of candidate probes; and (ii) one with the reported gene cloned with another constitutively active orphan receptor GPR119 to enable exclusion of GLP-1R independent inhibitor effects of candidate inverse agonists.
To that end, this assay was optimized for 1536-well format and screened against the MLSMR. Then the same collection was run in this cytotoxicity assay where inhibition was the undesired outcome.
NIH Molecular Libraries Probe Production Network [MLPCN]
NIH Chemical Genomics Center [NCGC]
PI Name: Martin Beinborn, Tufts Medical Center
Six ul of cell suspension (200 cells/uL in DMEM + 10% Nu serum + 1% pen-strep) is dispensed in a white solid 1536-well plate. The plates are incubated for 12 hours at 37 deg C at 5% CO2 followed by addition of 23 nL compounds. After 24 hr incubation at 37 deg C and 5% CO2, 3 uL of luciferase assay detection reagent is added. A luminescence read is obtained on the PerkinElmer Viewlux after 12 min incubation at room temperature.
% is scaled to controls: 0 for no effect and ±100 for the full control effect; potency is read from the fitted curve at half-maximal effect.

SMILES	Potency	activity change, negative = inhibition
COc1ccccc1/C=C/CN1CCC(n2nccc2NC(=O)CCc2ccccc2)CC1	inconclusive: 15.8 µM [inhibitor, single point]	–
CC1(Cc2cccc(C#N)c2)C(=O)Nc2ccc(-c3cccc(C(F)(F)F)c3)cc21 (configuration not stated)	inconclusive: 28.2 µM [inhibitor, single point]	–
CC(C)=CCC/C(C)=C/CNC(=O)C[C@H]1C[C@H](C(=O)N2CCOCC2)[C@@]2(C)c3[nH]c4cc(-c5ccco5)ccc4c3CCN2C1=O	inconclusive: 22.4 µM [inhibitor, single point]	–
CS(=O)c1nc(-c2ccc(Br)cc2)cc(-c2ccccc2)c1C#N (configuration not stated)	inconclusive: 14.1 µM [inhibitor, single point]	–
O=C1C(N2CCOCC2)=C(n2nnc3ccccc32)C(=O)c2ccccc21	inconclusive: 10 µM [inhibitor, single point]	–
Cc1ccc2nc(N3CCN(C)CC3)[nH]c2c1	–	inactive: 72.7%
COc1cc(/C=N/N=C(/N)c2nonc2N)cc(Br)c1OCc1cccc(C)c1	inconclusive: 28.2 µM [inhibitor, single point]	–
CC(C)C[C@H](NC(=O)c1[nH]cnc1C(=O)Nc1ccccc1)C(=O)OC(C)(C)C	inconclusive: 28.2 µM [inhibitor, partial curve, poor fit]	–
CC12CCC3c4ccc(OC(=O)N(CCCl)CCCl)cc4CCC3C1CCC2O (configuration not stated)	inconclusive: 0.891 µM [inhibitor, full curve, poor fit]	–
CCc1ccc(N2C(=O)NC(=O)/C(=C\C=C\c3ccco3)C2=O)cc1	inconclusive: 14.1 µM [inhibitor, single point]	–
CN(CCc1ccccc1)C(=O)c1ccc(NC(=O)Cc2cccc([N+](=O)[O-])c2)cc1	inconclusive: 28.2 µM [inhibitor, single point]	–
O=C(CCN1CCN(CCO)CC1)N1c2ccccc2Sc2ccc(C(F)(F)F)cc21	–	inactive: -16.1%
Cc1ccc(-c2nc(C(=O)NCCCN(C)C)cc3c2[nH]c2ccccc23)cc1	inconclusive: 28.2 µM [inhibitor, single point]	–
C/C(CC(c1ccccc1)c1c(O)c2ccccc2oc1=O)=N\Nc1ccc([N+](=O)[O-])cc1[N+](=O)[O-] (configuration not stated)	inconclusive: 28.2 µM [inhibitor, single point]	–
COC(=O)C1C(O)C(C)C(O)C(C)/C=C\C=C(/C)C(=O)Nc2c(C)c(OC(C)=O)c3c(c2O)C(=O)C(C)=C2OCOC(=C23)/C(C)=C/C(C)(O)C(O)C(C)C1O (configuration not stated)	–	inactive: -7.21%
C[C@@H]1CCCCO[C@H](CN(C)Cc2ccc(C(F)(F)F)cc2)[C@H](C)CN([C@@H](C)CO)C(=O)c2cc(NC(=O)Cc3ccccc3)ccc2O1	inconclusive: 11.2 µM [inhibitor, single point]	–
Cc1[nH]c2ccccc2c1C(=O)C(=O)N1c2ccccc2CC1C (configuration not stated)	inconclusive: 28.2 µM [inhibitor, single point]	–
CN1CCN(c2ccc(CNC(=O)c3cccc4c(-c5ccc(F)c(F)c5)coc34)cc2)CC1	inconclusive: 28.2 µM [inhibitor, single point]	–
O=c1[nH]c2ccccc2n1C1CCN(C(c2ccnc3ccccc23)c2nnnn2-c2ccc3c(c2)OCCO3)CC1 (configuration not stated)	inconclusive: 15.8 µM [inhibitor, partial curve, poor fit]	–

SMILES	Potency	activity change, negative = inhibition
COc1ccccc1-c1cc(NC=O)c2ncc(-c3ccc(F)cc3)n2c1	inconclusive: 7.94 µM [inhibitor, partial curve, poor fit]	–
CC1=C(O)C(=O)C=C2C1=CC=C1C2(C)CCC2(C)C3CC(C)(C(=O)O)CCC3(C)CCC12C (configuration not stated)	inconclusive: 5.62 µM [inhibitor, full curve, poor fit]	–
CCOc1cc2c(cc1OCC)-n1cccc1C(c1cc(C)c(OC)cc1C)NC2 (configuration not stated)	inconclusive: 28.2 µM [inhibitor, single point]	–
CC1CCc2c(sc3ncn(N)c(=N)c23)C1 (configuration not stated)	inconclusive: 28.2 µM [inhibitor, single point]	–
Cc1cc(S(=O)(=O)NCC(C)C)ccc1OCC(=O)N1CCN(Cc2ccccc2)CC1	–	inactive: 3.69%
Cc1ccc(C2c3c(-c4cc(C)ccc4O)n[nH]c3C(=O)N2Cc2ccco2)cc1 (configuration not stated)	inconclusive: 28.2 µM [inhibitor, single point]	–
O=C(Nc1ccccc1Cl)c1ccccc1Oc1ccc(C(F)(F)F)cc1[N+](=O)[O-]	inconclusive: 11.2 µM [inhibitor, single point]	–
CC(C)n1c(O)c(C2c3cc(Cl)ccc3Oc3[nH]c(=O)n(C(C)C)c(=O)c32)c(=O)[nH]c1=O (configuration not stated)	inconclusive: 6.31 µM [inhibitor, partial curve, poor fit]	–
Cc1ccc(S(=O)(=O)Nc2ccc3oc(=O)sc3c2)c(C)c1	inconclusive: 31.6 µM [inhibitor, single point]	–
CCOc1cc(C=C2C(=O)NC(=O)NC2=O)ccc1OS(=O)(=O)c1ccccc1	–	inactive: 3.99%
CN(C)c1ccc([N+](=O)[O-])c([N+](=O)[O-])c1	inconclusive: 10 µM [inhibitor, single point]	–
N[C@@H](Cc1ccc(N(CCCl)CCCl)cc1)C(=O)O	inconclusive: 10 µM [inhibitor, partial curve, poor fit]	–
CCOc1cccc(N2C(=O)/C(=C/c3ccco3)C(=O)NC2=S)c1	–	inactive: -5.7%
Oc1ccc(/C=N/Nc2nccnc2Cl)c(O)c1	inconclusive: 3.98 µM [inhibitor, partial curve]	–
COc1ccc(C(CNC(=O)Cc2ccc(Cl)c(Cl)c2)N2CCCCC2)cc1 (configuration not stated)	inconclusive: 28.2 µM [inhibitor, single point]	–
Cc1cccc(N2CCc3c2nc2ccccc2c3N)c1	inconclusive: 14.1 µM [inhibitor, single point]	–
Cc1ccc2nc(-c3ccncc3)cc(C(=O)Nc3ccc4c(c3)OCCO4)c2c1	inconclusive: 28.2 µM [inhibitor, single point]	–
CCCCN(CCCC)CC(O)CN(c1cc([N+](=O)[O-])ccc1OC)S(=O)(=O)c1ccccc1 (configuration not stated)	inconclusive: 11.2 µM [inhibitor, single point]	–
